{
  "source": "PubChem BioAssay (Tox21)",
  "key": {"[1]": {"biological_target": "Nuclear receptor subfamily 1 group I member 3 (Homo sapiens) (UniProt Q14994)", "sequence (Q14994 whole entry, looked up)": "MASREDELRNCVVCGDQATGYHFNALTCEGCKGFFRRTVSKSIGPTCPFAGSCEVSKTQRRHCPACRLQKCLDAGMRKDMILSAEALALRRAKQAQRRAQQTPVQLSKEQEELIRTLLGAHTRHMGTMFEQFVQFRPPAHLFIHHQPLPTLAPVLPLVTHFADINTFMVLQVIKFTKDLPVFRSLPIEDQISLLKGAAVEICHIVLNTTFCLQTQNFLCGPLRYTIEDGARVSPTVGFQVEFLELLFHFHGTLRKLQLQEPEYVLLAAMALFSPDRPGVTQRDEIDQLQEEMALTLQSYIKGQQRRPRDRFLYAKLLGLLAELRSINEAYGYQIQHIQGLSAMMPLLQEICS", "experiment": "qHTS assay to identify small molecule agonists of the constitutive androstane receptor (CAR) signaling pathway (AID 1224839; active = well fitted curve in the direction sought with a large enough effect in the repeat runs; inconclusive = weak or mixed curves; inactive = no such curve, though single readings can be large; an effect the other way counts as inactive or inconclusive; also: nearly all actives have a fitted effect of over 15% in size)", "outline": "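Luminescent ONE-Glo read-out after 24 hr, 37 C exposure of double-stable HepG2-CYP2B6-hCAR reporter cells to a 15-point compound series, in the presence of 0.75 uM PK11195 (final).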"}, "[2]": {"experiment": "qHTS assay to identify small molecule agonists of H2AX - cell viability counter screen (AID 1224847); also: nearly all actives have a fitted effect of over 30% in size", "outline": "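Counter-screen for viability: CellTiter-Glo ATP luminescence read after 3 h compound treatment (15-point titration, 0.76% DMSO final) of CHO-K1 cells at 37C, with 30 min room-temperature reagent incubation.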"}, "[3]": {"experiment": "qHTS assay to identify small molecule antagonists of the estrogen related receptor signaling pathway with the pleiotropic PPARgamma coactivator (PGC) from Tox21 10K library - cell viability counter screen (AID 1224840; active = well fitted cell-killing curve with a large enough effect in the repeat runs, not every such curve was filed as active; inconclusive = weak or mixed curves, or effect the other way; inactive = no such curve, though single readings can be large or run the other way; also: nearly all actives have a fitted effect of over 40% in size)", "outline": "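Step one, plate 2,000 PGC/ERR cells per well; step two, incubate 6 h at 37 C/5% CO2; step three, pin-transfer compounds; step four, incubate 17.5 h; step five, add CellTiter-Fluor and read fluorescence after 30 min.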"}, "[4]": {"biological_target": "Thyrotropin receptor (Homo sapiens) (UniProt P16473)", "sequence (P16473 whole entry, looked up)": "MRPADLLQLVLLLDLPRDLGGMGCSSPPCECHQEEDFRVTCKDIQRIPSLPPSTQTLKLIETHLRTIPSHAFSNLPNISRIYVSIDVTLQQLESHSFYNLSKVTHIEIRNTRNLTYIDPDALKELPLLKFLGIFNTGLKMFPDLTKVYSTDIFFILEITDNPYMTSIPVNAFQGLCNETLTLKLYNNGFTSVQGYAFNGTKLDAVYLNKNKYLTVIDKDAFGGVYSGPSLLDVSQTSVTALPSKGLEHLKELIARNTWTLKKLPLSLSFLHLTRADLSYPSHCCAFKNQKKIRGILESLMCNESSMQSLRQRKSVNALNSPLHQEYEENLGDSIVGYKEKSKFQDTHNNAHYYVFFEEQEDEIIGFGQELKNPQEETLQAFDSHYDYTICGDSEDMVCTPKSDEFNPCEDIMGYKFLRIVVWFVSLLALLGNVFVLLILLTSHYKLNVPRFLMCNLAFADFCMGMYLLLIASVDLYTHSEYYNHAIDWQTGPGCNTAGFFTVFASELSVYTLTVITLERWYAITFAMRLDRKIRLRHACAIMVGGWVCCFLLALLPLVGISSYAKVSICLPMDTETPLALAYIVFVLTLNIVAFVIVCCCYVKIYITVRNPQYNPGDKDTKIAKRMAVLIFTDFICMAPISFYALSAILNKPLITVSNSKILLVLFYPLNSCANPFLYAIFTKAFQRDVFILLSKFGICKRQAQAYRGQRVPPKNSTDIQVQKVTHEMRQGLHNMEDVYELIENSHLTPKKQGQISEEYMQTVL", "experiment": "qHTS assay to identify small molecule agonists of the thyroid stimulating hormone receptor (TSHR) signaling pathway (AID 1224843); also: nearly all actives have a fitted effect of over 45% in size; as to activation: % is scaled to controls: 0 for no effect and ±100 for the full control effect", "conditions": "TSHR-HEK293 cells, cAMP HTRF, agonist mode, 30 min; activation: at 92.4 µM (top of the series) unless noted", "outline": "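Cell line HEK293 with TSHR; density 800/well. Exposure 30 min RT. Readout HTRF cAMP (cAMP-d2/anti-cAMP-cryptate), 1 h RT before reading.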"}, "[5]": {"experiment": "qHTS assay to identify small molecule agonists of H2AX (AID 1224845; active = well fitted activation curve with a large enough effect in the signal ratio in the repeat runs, not every such curve was filed as active; inconclusive = weak or mixed curves; the % refers to the signal ratio; as to activation (H2AX phosphorylation): % is scaled to controls: 0 for no effect and ±100 for the full control effect)", "conditions": "CHO-K1 phospho-H2AX Ser139 HTRF, 3 h; activation (H2AX phosphorylation): at 154 µM (top of the series) unless noted", "outline": "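Wild-type CHO-K1 cells plated overnight, then exposed 3 hr at 37C to compounds at 15 concentrations (0.76% DMSO). Lysed, then HTRF anti-pH2AX(S139)-cryptate/anti-H2AX-d2 detection after 24 hr at room temperature; emissions 665 and 620 nm.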"}, "[6]": {"experiment": "qHTS assay to identify small molecule agonists of the hypoxia (HIF-1) signaling pathway (AID 1224846; active = well fitted activation curve with a large enough effect in the signal ratio in the repeat runs, not every such curve was filed as active; inconclusive = weak or mixed curves; the % refers to the signal ratio)", "conditions": "HRE-bla ME-180 cells, beta-lactamase ratio, 17 h; activation: at 76.8 µM (top of the series) unless noted", "outline": "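Steps: seed ME-180 HRE-bla cells (2,000/well, 0.5% dialyzed FBS); incubate 5 hrs at 37C; pin-transfer compounds or DMSO; incubate 17 hrs; add LiveBLAzer B/G substrate CCF4-AM; measure reporter activation by FRET.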"}, "[7]": {"experiment": "qHTS assay to identify small molecule agonists of the hypoxia (HIF-1) signaling pathway - cell viability counter screen (AID 1224844); also: nearly all actives have a fitted effect of over 50% in size", "outline": "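Tox21 10K compounds were added to HRE-bla ME-180 cells (0.5% dialyzed FBS) and incubated 17 hrs at 37C; ATP-based CellTiter-Glo luminescence then reported cell viability in the same wells.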"}, "[8]": {"experiment": "qHTS assay to identify small molecule agonists of the estrogen related receptor signaling pathway with the pleiotropic PPARgamma coactivator (PGC) from Tox21 10K library (AID 1224842; active = well fitted curve in the direction sought with a large enough effect in the repeat runs; inconclusive = weak or mixed curves; inactive = no such curve, though single readings can be large; an effect the other way counts as inactive or inconclusive; also: nearly all actives have a fitted effect of over 15% in size)", "outline": "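PGC/ERR reporter cells (NTP line) were seeded 2,000 per well, rested 6 h at 37 C/5% CO2, then pin-dosed with compounds in DMSO for 18 h at 37 C; luciferase read by One-Glo luminescence after 30 min at room temperature.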"}, "[9]": {"experiment": "qHTS assay to identify small molecule antagonists of the estrogen related receptor signaling pathway with the pleiotropic PPARgamma coactivator (PGC) from Tox21 10K library (AID 1224841; call rule not given here; also: actives are mostly falling curves and most rising ones were filed inactive; nearly all actives have a fitted effect of over 50% in size)", "outline": "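Antagonism in this quantitative HTS is taken from loss of luciferase signal in PGC/ERR cells. Cells (2,000/well) are treated with compounds in DMSO after a 6 h settling period and read by One-Glo luminescence after 18 h.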"}},
  "note": "The inconclusive results got no clear call from the source; some entries with a clear call stand among them for comparison. For some assays here: A potency beside an inconclusive call is a rough fit, not a confirmed value. A structure can be active in one record and inactive in another. Active and inactive are the calls of the source. Unless noted, calls follow the shape of the full dose curve. Potency is read from the fitted curve at half-maximal effect; tags tell the direction and shape of the fitted curve or compound fluorescence and quenching.",
  "data": [
    {"molecule": "Cc1cc(C)nc(Nc2ccccc2)n1", "values": [
      {"measurement": "Potency", "setting": "[1]", "result": "active: 61.1 µM"},
      {"measurement": "Potency", "setting": "[2]", "result": "inactive"}
    ]},
    {"molecule": "O=NN1CCCC1", "values": [
      {"measurement": "Potency", "setting": "[3]", "result": "inconclusive: 64 µM [cytotoxic, single point]"},
      {"measurement": "activation", "setting": "[4]", "result": "inconclusive: -21.5%"},
      {"measurement": "Potency", "setting": "[5]", "result": "active: 16.7 µM"},
      {"measurement": "Potency", "setting": "[6]", "result": "inconclusive: 11.5 µM [full curve]"}
    ]},
    {"molecule": "Fc1ccc(Oc2ccnc3cc(Cl)cc(Cl)c23)cc1", "values": [
      {"measurement": "Potency", "setting": "[3]", "result": "inactive"},
      {"measurement": "Potency", "setting": "[4]", "result": "inconclusive: 6.86 µM [inhibitor, full curve]"},
      {"measurement": "Potency", "setting": "[7]", "result": "inconclusive: 61.6 µM [cytotoxic, single point]"},
      {"measurement": "Potency", "setting": "[5]", "result": "inactive"},
      {"measurement": "Potency", "setting": "[6]", "result": "inconclusive: 54.9 µM"},
      {"measurement": "Potency", "setting": "[2]", "result": "inconclusive: 80 µM [cytotoxic, partial curve, poor fit]"}
    ]},
    {"molecule": "Nc1ccc(N=Nc2ccccc2)cc1", "values": [
      {"measurement": "Potency", "setting": "[3]", "result": "active: 24.3 µM"},
      {"measurement": "Potency", "setting": "[8]", "result": "active: 3.06 µM"},
      {"measurement": "Potency", "setting": "[7]", "result": "inconclusive: 21.9 µM [rising, partial curve, poor fit]"},
      {"measurement": "Potency", "setting": "[5]", "result": "inconclusive: 101 µM"},
      {"measurement": "Potency", "setting": "[6]", "result": "inconclusive: 0.195 µM [falling, single point]"},
      {"measurement": "Potency", "setting": "[2]", "result": "inconclusive: 80 µM [cytotoxic, partial curve, poor fit]"}
    ]},
    {"molecule": "CCC[N+](=O)[O-]", "values": [
      {"measurement": "Potency", "setting": "[3]", "result": "active: 37.9 µM"},
      {"measurement": "activation", "setting": "[4]", "result": "inconclusive: 3.86%"},
      {"measurement": "Potency", "setting": "[7]", "result": "active: 4.81 µM"},
      {"measurement": "Potency", "setting": "[5]", "result": "active: 5.56 µM"},
      {"measurement": "Potency", "setting": "[6]", "result": "inconclusive: 4.81 µM [full curve]"}
    ]},
    {"molecule": "Cc1ccccc1C(=O)Nc1cccc(OC(C)C)c1", "values": [
      {"measurement": "Potency", "setting": "[1]", "result": "inconclusive: 27.3 µM [activator]"},
      {"measurement": "Potency", "setting": "[2]", "result": "inconclusive: 80 µM [cytotoxic, partial curve]"}
    ]},
    {"molecule": "Oc1ccc2[nH]cc(CCCCN3CC=C(c4ccccc4)CC3)c2c1", "values": [
      {"measurement": "Potency", "setting": "[3]", "result": "inconclusive: 29.8 µM [cytotoxic]"},
      {"measurement": "Potency", "setting": "[9]", "result": "active: 5.96 µM"},
      {"measurement": "activation (H2AX phosphorylation)", "setting": "[5]", "result": "inconclusive: 14.7% [at 70.9 µM]"},
      {"measurement": "Potency", "setting": "[2]", "result": "inconclusive: 55.2 µM [cytotoxic, single point]"}
    ]},
    {"molecule": "CCNc1nc(NC(C)(C)C)nc(SC)n1", "values": [
      {"measurement": "Potency", "setting": "[3]", "result": "inconclusive: 68.6 µM [cytotoxic, partial curve, poor fit]"},
      {"measurement": "Potency", "setting": "[5]", "result": "inactive"}
    ]},
    {"molecule": "COc1ccc2c3c1O[C@H]1[C@@H](O)C=C[C@H]4[C@@H](C2)N(C)CC[C@@]341", "values": [
      {"measurement": "Potency", "setting": "[3]", "result": "active: 42.6 µM"},
      {"measurement": "Potency", "setting": "[5]", "result": "active: 99.2 µM"},
      {"measurement": "Potency", "setting": "[2]", "result": "inconclusive: 99.2 µM [rising, partial curve]"}
    ]},
    {"molecule": "C/C(=C\\c1ccccc1)[N+](=O)[O-]", "values": [
      {"measurement": "Potency", "setting": "[3]", "result": "inconclusive: 27.3 µM [cytotoxic, full curve]"},
      {"measurement": "activation", "setting": "[4]", "result": "inconclusive: 1.26%"},
      {"measurement": "Potency", "setting": "[5]", "result": "inconclusive: 25.3 µM [falling, full curve]"},
      {"measurement": "Potency", "setting": "[2]", "result": "inconclusive: 63.5 µM [rising, single point]"}
    ]},
    {"molecule": "CCCCCCCCn1cc[n+](C)c1", "values": [
      {"measurement": "Potency", "setting": "[3]", "result": "inconclusive: 27.6 µM [cytotoxic, partial curve, poor fit]"},
      {"measurement": "Potency", "setting": "[2]", "result": "inconclusive: 102 µM [cytotoxic, single point]"}
    ]},
    {"molecule": "C[C@]12CC[C@@H](O)C[C@@H]1CC[C@@H]1[C@@H]2CC[C@]2(C)C(=O)CC[C@@H]12", "values": [
      {"measurement": "Potency", "setting": "[3]", "result": "inconclusive: 30.6 µM [cytotoxic, full curve]"},
      {"measurement": "Potency", "setting": "[2]", "result": "active: 101 µM"}
    ]},
    {"molecule": "Cc1cccc(N)c1C", "values": [
      {"measurement": "Potency", "setting": "[3]", "result": "inactive"},
      {"measurement": "Potency", "setting": "[4]", "result": "inactive"},
      {"measurement": "Potency", "setting": "[2]", "result": "inactive"}
    ]},
    {"molecule": "C[C@H]1CCC[C@H](O)CCCCCc2cc(O)cc(O)c2C(=O)O1", "values": [
      {"measurement": "Potency", "setting": "[3]", "result": "inconclusive: 61.6 µM [cytotoxic]"},
      {"measurement": "Potency", "setting": "[2]", "result": "inconclusive: 128 µM [cytotoxic, single point]"}
    ]},
    {"molecule": "C=CCOC(Cn1ccnc1)c1ccc(Cl)cc1Cl", "note": "(configuration not stated)", "values": [
      {"measurement": "Potency", "setting": "[3]", "result": "inconclusive: 30.7 µM [cytotoxic, partial curve]"},
      {"measurement": "Potency", "setting": "[7]", "result": "active: 39 µM"},
      {"measurement": "Potency", "setting": "[2]", "result": "inconclusive: 127 µM [cytotoxic, single point]"}
    ]},
    {"molecule": "Cc1cc(C(C)(C)c2ccc(O)c(C)c2)ccc1O", "values": [
      {"measurement": "Potency", "setting": "[3]", "result": "inconclusive: 29.2 µM [cytotoxic, partial curve]"},
      {"measurement": "Potency", "setting": "[4]", "result": "active: 46.2 µM"},
      {"measurement": "Potency", "setting": "[6]", "result": "inconclusive: 52.3 µM [falling, single point]"},
      {"measurement": "Potency", "setting": "[2]", "result": "active: 108 µM"}
    ]},
    {"molecule": "O=[N+]([O-])c1cc(C(F)(F)F)cc([N+](=O)[O-])c1Cl", "values": [
      {"measurement": "Potency", "setting": "[3]", "result": "inconclusive: 68.9 µM [cytotoxic, single point]"},
      {"measurement": "Potency", "setting": "[7]", "result": "inconclusive: 5.52 µM [cytotoxic, partial curve, poor fit]"}
    ]},
    {"molecule": "CC[n+]1ccccc1", "values": [
      {"measurement": "Potency", "setting": "[3]", "result": "inconclusive: 60.6 µM [cytotoxic, partial curve]"},
      {"measurement": "Potency", "setting": "[2]", "result": "active: 1.26 µM"}
    ]},
    {"molecule": "O=C(O)C(F)(F)C(F)(F)C(F)(F)C(F)(F)C(F)(F)C(F)(F)C(F)(F)C(F)(F)C(F)(F)F", "values": [
      {"measurement": "Potency", "setting": "[3]", "result": "inactive"},
      {"measurement": "Potency", "setting": "[7]", "result": "active: 13.8 µM"},
      {"measurement": "Potency", "setting": "[5]", "result": "inactive"},
      {"measurement": "Potency", "setting": "[6]", "result": "inconclusive: 61.6 µM [falling, single point]"}
    ]}
  ]
}
